{"source": "the supplement of paper PMC4604168 (melanoma cell lines)", "note": "This is one part of the list. Repeats are few or missing, and single values can be far off.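 Also: cells treated in 1,536-well plates, then fixed and DAPI-stained, with nuclei counted from automated high-throughput microscope images.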", "data": [{"system": "WM1716", "assay": "cell count relative to DMSO control; higher = more viable cells", "settings": "library dose: standard library concentration; 72 h", "units": {"cell count": "%"}, "values": [{"smiles": "Cn1cnc2c(F)c(Nc3ccc(Br)cc3Cl)c(C(=O)NOCCO)cc21", "note": "[selumetinib] + CCCCCCCCCCCC1=C(O)C(=O)C=C(O)C1=O [Embelin] (first compound 0.075 µM, partner dose 6 µM)", "cell count": 74.3}, {"smiles": "CCN(CC)CCNC(=O)c1c(C)[nH]c(/C=C2\\C(=O)Nc3ccc(F)cc32)c1C", "note": "[sunitinib] + O=C(O)C(=O)Nc1sc2c(c1C(=O)O)CCNC2 [TCS401] (first compound 2 µM, partner dose 8.33333 µM)", "cell count": 91.8}, {"smiles": "C[C@]1(O)C[C@@H](c2nc(-c3ccc4ccc(-c5ccccc5)nc4c3)c3c(N)nccn32)C1", "note": "+ Oc1cc(-c2nc(-c3ccccc3)[nH]c2-c2ccncc2)ccc1Cl [L779450] (first compound 2 µM, partner dose 1 µM)", "cell count": 77.7}, {"smiles": "COc1cc([C@@H]2c3cc4c(cc3[C@@H](O[C@@H]3O[C@@H]5CO[C@@H](C)O[C@H]5[C@H](O)[C@H]3O)[C@H]3COC(=O)[C@H]23)OCO4)cc(OC)c1O", "note": "[etoposide] + COC(=O)c1sccc1S(=O)(=O)Nc1ccc(Nc2ccccc2)cc1OC [GSK0660] (first compound 0.1 µM, partner dose 5 µM)", "cell count": 66.6}]}, {"system": "WM3526", "assay": "cell count relative to DMSO control; melanoma cells; higher = more viable cells", "settings": "library dose: standard library concentration; 72 h", "units": {"cell count": "%"}, "values": [{"smiles": "Cn1cnc2c(F)c(Nc3ccc(Br)cc3Cl)c(C(=O)NOCCO)cc21", "note": "[selumetinib] + Cc1cc([N+](=O)[O-])ccc1NS(=O)(=O)c1cc(Cl)ccc1Cl [FH535] (first compound 0.075 µM, partner dose 5 µM)", "cell count": 62.9}, {"smiles": "Cn1cnc2c(F)c(Nc3ccc(Br)cc3Cl)c(C(=O)NOCCO)cc21", "note": "[selumetinib] + COc1cc2ncnc(Nc3ccc(Oc4ccccc4)cc3)c2cc1OC [SrcI1] (first compound 0.075 µM, partner dose 10 µM)", "cell count": 48.4}, {"smiles": "C[C@]1(O)C[C@@H](c2nc(-c3ccc4ccc(-c5ccccc5)nc4c3)c3c(N)nccn32)C1", "note": "+ CCc1ccc(CCOc2ccc(CC3SC(=O)NC3=O)cc2)nc1 [pioglitazone] (first compound 2 µM, partner dose 10 µM)", "cell count": 77.4}, {"smiles": "CCN(CC)CCNC(=O)c1c(C)[nH]c(/C=C2\\C(=O)Nc3ccc(F)cc32)c1C", "note": "[sunitinib] + O=S(=O)(c1ccccc1)N(CC(F)(F)F)c1ccc(C(O)(C(F)(F)F)C(F)(F)F)cc1 [T0901317] (first compound 2 µM, partner dose 7 µM)", "cell count": 57.7}, {"smiles": "Cn1cnc2c(F)c(Nc3ccc(Br)cc3Cl)c(C(=O)NOCCO)cc21", "note": "[selumetinib] + Oc1cc(-c2nc(-c3ccccc3)[nH]c2-c2ccncc2)ccc1Cl [L779450] (first compound 0.075 µM, partner dose 1 µM)", "cell count": 33.2}, {"smiles": "C[C@]1(O)C[C@@H](c2nc(-c3ccc4ccc(-c5ccccc5)nc4c3)c3c(N)nccn32)C1", "note": "+ N#Cc1c(O)c2c(-c3ccc(-c4ccccc4O)cc3)csc2[nH]c1=O [A769662] (first compound 2 µM, partner dose 10 µM)", "cell count": 93.6}, {"smiles": "COc1cc([C@@H]2c3cc4c(cc3[C@@H](O[C@@H]3O[C@@H]5CO[C@@H](C)O[C@H]5[C@H](O)[C@H]3O)[C@H]3COC(=O)[C@H]23)OCO4)cc(OC)c1O", "note": "[etoposide] + N#Cc1c(O)c2c(-c3ccc(-c4ccccc4O)cc3)csc2[nH]c1=O [A769662] (first compound 0.1 µM, partner dose 10 µM)", "cell count": 103}, {"smiles": "CCN(CC)CCNC(=O)c1c(C)[nH]c(/C=C2\\C(=O)Nc3ccc(F)cc32)c1C", "note": "[sunitinib] + COc1ccc(-c2ccc3c(N4CCOCC4)nc(N4C[C@@H](C)O[C@@H](C)C4)nc3n2)cc1CO [KU0063794] (first compound 2 µM, partner dose 0.1 µM)", "cell count": 55.7}, {"smiles": "CCN(CC)CCNC(=O)c1c(C)[nH]c(/C=C2\\C(=O)Nc3ccc(F)cc32)c1C", "note": "[sunitinib] + N#Cc1c(O)c2c(-c3ccc(-c4ccccc4O)cc3)csc2[nH]c1=O [A769662] (first compound 2 µM, partner dose 10 µM)", "cell count": 76.6}, {"smiles": "Cn1cnc2c(F)c(Nc3ccc(Br)cc3Cl)c(C(=O)NOCCO)cc21", "note": "[selumetinib] + CCc1ccc(CCOc2ccc(CC3SC(=O)NC3=O)cc2)nc1 [pioglitazone] (first compound 0.075 µM, partner dose 10 µM)", "cell count": 56.1}, {"smiles": "C[C@]1(O)C[C@@H](c2nc(-c3ccc4ccc(-c5ccccc5)nc4c3)c3c(N)nccn32)C1", "note": "+ COc1ccc(-c2ccc3c(N4CCOCC4)nc(N4C[C@@H](C)O[C@@H](C)C4)nc3n2)cc1CO [KU0063794] (first compound 2 µM, partner dose 0.1 µM)", "cell count": 73.2}, {"smiles": "Cn1cnc2c(F)c(Nc3ccc(Br)cc3Cl)c(C(=O)NOCCO)cc21", "note": "[selumetinib] + O=c1cc(-c2cccc3c2Sc2ccccc2S3)oc(N2CCOCC2)c1 [KU55933] (first compound 0.075 µM, partner dose 5 µM)", "cell count": 59.5}, {"smiles": "Cn1cnc2c(F)c(Nc3ccc(Br)cc3Cl)c(C(=O)NOCCO)cc21", "note": "[selumetinib] + O=C(Nc1ccccc1)c1cc([N+](=O)[O-])ccc1Cl [GW9662] (first compound 0.075 µM, partner dose 10 µM)", "cell count": 54.3}, {"smiles": "COc1cc([C@@H]2c3cc4c(cc3[C@@H](O[C@@H]3O[C@@H]5CO[C@@H](C)O[C@H]5[C@H](O)[C@H]3O)[C@H]3COC(=O)[C@H]23)OCO4)cc(OC)c1O", "note": "[etoposide] + COc1cc(N2CCC(N3CCN(C)CC3)CC2)ccc1Nc1ncc(Cl)c(Nc2ccccc2S(=O)(=O)C(C)C)n1 [NVP-TAE684] (first compound 0.1 µM, partner dose 0.4 µM)", "cell count": 75.9}, {"smiles": "Cn1cnc2c(F)c(Nc3ccc(Br)cc3Cl)c(C(=O)NOCCO)cc21", "note": "[selumetinib] + COc1ccc(COc2ccc(Cc3cnc(N)nc3N)cc2OC)cc1 [GW2580] (first compound 0.075 µM, partner dose 5 µM)", "cell count": 74.7}, {"smiles": "CCN(CC)CCNC(=O)c1c(C)[nH]c(/C=C2\\C(=O)Nc3ccc(F)cc32)c1C", "note": "[sunitinib] + Oc1cc(-c2nc(-c3ccccc3)[nH]c2-c2ccncc2)ccc1Cl [L779450] (first compound 2 µM, partner dose 1 µM)", "cell count": 26.2}, {"smiles": "Cn1cnc2c(F)c(Nc3ccc(Br)cc3Cl)c(C(=O)NOCCO)cc21", "note": "[selumetinib] + CCN(CC)CCCCNc1ncc2cc(-c3cc(OC)cc(OC)c3)c(NC(=O)NC(C)(C)C)nc2n1 [PD173074] (first compound 0.075 µM, partner dose 0.5 µM)", "cell count": 49.5}, {"smiles": "COc1cc([C@@H]2c3cc4c(cc3[C@@H](O[C@@H]3O[C@@H]5CO[C@@H](C)O[C@H]5[C@H](O)[C@H]3O)[C@H]3COC(=O)[C@H]23)OCO4)cc(OC)c1O", "note": "[etoposide] + CCCCCCCCCCCC1=C(O)C(=O)C=C(O)C1=O [Embelin] (first compound 0.1 µM, partner dose 6 µM)", "cell count": 102}, {"smiles": "CCN(CC)CCNC(=O)c1c(C)[nH]c(/C=C2\\C(=O)Nc3ccc(F)cc32)c1C", "note": "[sunitinib] + Cc1cc([N+](=O)[O-])ccc1NS(=O)(=O)c1cc(Cl)ccc1Cl [FH535] (first compound 2 µM, partner dose 5 µM)", "cell count": 57.7}, {"smiles": "C[C@]1(O)C[C@@H](c2nc(-c3ccc4ccc(-c5ccccc5)nc4c3)c3c(N)nccn32)C1", "note": "+ COC(=O)c1sccc1S(=O)(=O)Nc1ccc(Nc2ccccc2)cc1OC [GSK0660] (first compound 2 µM, partner dose 5 µM)", "cell count": 72.8}, {"smiles": "COc1cc([C@@H]2c3cc4c(cc3[C@@H](O[C@@H]3O[C@@H]5CO[C@@H](C)O[C@H]5[C@H](O)[C@H]3O)[C@H]3COC(=O)[C@H]23)OCO4)cc(OC)c1O", "note": "[etoposide] + c1cc(-c2cnn3cc(-c4ccc(OCCN5CCCCC5)cc4)cnc23)ccn1 [Dorsomorphin] (first compound 0.1 µM, partner dose 2 µM)", "cell count": 90}, {"smiles": "C[C@]1(O)C[C@@H](c2nc(-c3ccc4ccc(-c5ccccc5)nc4c3)c3c(N)nccn32)C1", "note": "+ CCN(CC)CCCCNc1ncc2cc(-c3cc(OC)cc(OC)c3)c(NC(=O)NC(C)(C)C)nc2n1 [PD173074] (first compound 2 µM, partner dose 0.5 µM)", "cell count": 88.4}, {"smiles": "COc1cc([C@@H]2c3cc4c(cc3[C@@H](O[C@@H]3O[C@@H]5CO[C@@H](C)O[C@H]5[C@H](O)[C@H]3O)[C@H]3COC(=O)[C@H]23)OCO4)cc(OC)c1O", "note": "[etoposide] + CCN(CC)CCCCNc1ncc2cc(-c3cc(OC)cc(OC)c3)c(NC(=O)NC(C)(C)C)nc2n1 [PD173074] (first compound 0.1 µM, partner dose 0.5 µM)", "cell count": 98.1}, {"smiles": "COc1cc([C@@H]2c3cc4c(cc3[C@@H](O[C@@H]3O[C@@H]5CO[C@@H](C)O[C@H]5[C@H](O)[C@H]3O)[C@H]3COC(=O)[C@H]23)OCO4)cc(OC)c1O", "note": "[etoposide] + O=C(Nc1ccccc1)c1cc([N+](=O)[O-])ccc1Cl [GW9662] (first compound 0.1 µM, partner dose 10 µM)", "cell count": 99.4}, {"smiles": "COc1cc([C@@H]2c3cc4c(cc3[C@@H](O[C@@H]3O[C@@H]5CO[C@@H](C)O[C@H]5[C@H](O)[C@H]3O)[C@H]3COC(=O)[C@H]23)OCO4)cc(OC)c1O", "note": "[etoposide] + COc1ccc2c(c1)CCC1C2CCC2(C)C(NCCCCCCN3C(=O)C=CC3=O)CCC12 [U73122] (first compound 0.1 µM, partner dose 2 µM)", "cell count": 93.5}]}]}
